In all, about 18,000 sequences were measured (“TetR repression strength (sort-seq, GFP reporter)”: median about 0.23, highest 2% from about 0.68 on). Some of the results follow.

UniProt P04483, sequence (P04483 whole entry): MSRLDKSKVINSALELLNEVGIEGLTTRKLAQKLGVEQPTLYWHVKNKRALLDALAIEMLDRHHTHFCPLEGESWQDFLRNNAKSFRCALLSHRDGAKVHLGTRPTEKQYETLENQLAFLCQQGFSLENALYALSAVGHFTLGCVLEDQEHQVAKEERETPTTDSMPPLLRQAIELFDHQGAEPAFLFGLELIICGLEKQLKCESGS

The target of this assay is TetR (class B, Tn10) (UniProt P04483). Description: TetR repression strength (sort-seq, GFP reporter) (relative to tetO2 = 1); higher = stronger repression. The note with it: E. coli. The procedure, abridged:
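Repression strength is the top bin index plus one minus the read-weighted mean bin, relative to the unaltered operator's value. A low-copy library in E. coli SIG10-MAX randomized eight operator positions between a constitutive promoter and sfGFP, with TetR expressed constitutively; cells grew 5 h at 37 °C in LB with 50 µg/mL chloramphenicol and 10^6 were FACS-sorted into 13 bins that were each Illumina-sequenced. Three independent transformations were averaged, keeping only members with ≥30 reads in all replicates and CV ≤0.5.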
TCCCACGGAGTGCACGAGA registered a TetR repression strength of 0.285. For TCCCATCAAGTGCGAGAGA the value was 0.166; for TCCCGTCGAGTGGTCGAGA, 0.0327.

As to TCCCAGTGAGTAGGTGAGA, the TetR repression strength worked out at 0.112. The same measure for TCCCTAGAAGTTTGGGAGA: 0.173; for TCCCGAACAGTTGACGAGA: 0.204.

With TCCCTTCAAGTGGGAGAGA, the TetR repression strength stood at 0.0682. The same measure for TCCCTTTCAGTGGGCGAGA: 0.382; for TCCCAGCTAGTAGGCGAGA: 0.0972. The same measure for TCCCGTCGAGTATCCGAGA: 0.0859; for TCCCCTGGAGTAATTGAGA: 0.367; for TCCCCAACAGTAGGAGAGA: 0.207. For TCCCGCGAAGTTCGGGAGA the value was 0.0228; for TCCCGCTAAGTTGCAGAGA, 0.265. For the sequence TCCCGCAAAGTCGATGAGA, the TetR repression strength came out at 0.0237. For TCCCCCGCAGTCCTCGAGA the value was 0.41. Sequence TCCCGGGGAGTGGCAGAGA returned a TetR repression strength of 0.34. TCCCCCAGAGTCAGTGAGA showed a TetR repression strength of 0.163. The same measure for TCCCGATAAGTGAAAGAGA: 0.451; for TCCCGGGCAGTTTTGGAGA: 0.0982. On to TCCCTGATAGTGCTCGAGA, for which the TetR repression strength came out at 0.215. For TCCCCTGAAGTCGTAGAGA the value was 0.199. The same measure for TCCCCATGAGTGCCAGAGA: 0.266.

As to TCCCAACGAGTTGTTGAGA, the TetR repression strength is 0.0336. The same measure for TCCCCTACAGTTCTGGAGA: 0.207; for TCCCCGAAAGTTACTGAGA: 0.243; for TCCCAGGCAGTGATTGAGA: 0.247. For TCCCGGAGAGTAGGGGAGA the value was 0.268; for TCCCGTAGAGTTGTTGAGA, 0.207; for TCCCCGACAGTCGTTGAGA, 0.103. For TCCCGCGGAGTACGTGAGA the value was 0.102; for TCCCGTCCAGTGAATGAGA, 0.387; for TCCCATTCAGTGCACGAGA, 0.691. For TCCCAGGCAGTGTGGGAGA, the TetR repression strength was found to be 0.289. For TCCCCTTAAGTACGAGAGA the value was 0.0791. The same measure for TCCCGCTGAGTTCGTGAGA: 0.185; for TCCCCGCGAGTTTGGGAGA: 0. For TCCCTTCAAGTATAGGAGA the value was 0.206; for TCCCCAGGAGTAGGGGAGA, 0.114. The sequence TCCCTGGAAGTTGGTGAGA registered a TetR repression strength of 0.0653. The same measure for TCCCCGACAGTAATCGAGA: 0.0806; for TCCCTTTGAGTCTACGAGA: 0.427; for TCCCTGTAAGTTGGGGAGA: 0.333. For TCCCCAAGAGTCAACGAGA the value was 0.359; for TCCCTGTTAGTACGTGAGA, 0; for TCCCAATTAGTCCCGGAGA, 0.165.

In turn, TCCCTCTTAGTACGTGAGA gave a TetR repression strength of 0.25. The same measure for TCCCTTCCAGTTTTGGAGA: 0.364; for TCCCTCGTAGTGGGTGAGA: 0.815.

TCCCGGTGAGTGACCGAGA: the TetR repression strength turned out to be 0.207. With TCCCCATCAGTGGTAGAGA, the TetR repression strength amounted to 0.417. The same measure for TCCCGTGCAGTATGTGAGA: 0.207; for TCCCGTGCAGTGCAGGAGA: 0.513; for TCCCGGAGAGTGTGGGAGA: 0.358. The same measure for TCCCCTTCAGTATTTGAGA: 0.269. TCCCGTAAAGTAGCAGAGA: the TetR repression strength came out at 0.185.
